Screen size: about 330,000 compounds; about 4,200 (1.3%) were called active. The shares of active, inactive and inconclusive entries below differ from those in the screen. Calls follow the shape of the dose curve; as a rule, active = well fitted activation curve with a large enough effect; inconclusive = small, poorly fitted or top-dose-only effect; inactive = no such curve, though single readings can be large or run the other way. A potency beside an inconclusive call is a rough fit, not a confirmed value.
Assay: qHTS screen for small molecules that induce genotoxicity in human embryonic kidney (HEK293T) cells expressing luciferase-tagged ELG1; also: nearly all actives have a fitted effect of over 60% in size
Conditions: HEK293T ELG1-luciferase reporter, luminescence, 16 h; series mostly up to 46 µM
In short: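 Reporter readout depends on ELG1 protein level, which increases with genetic stress. After 16 hr compound exposure at 37 °C, luciferase activity was quantified using ONE-Glo.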
Potency is read from the fitted curve at half-maximal effect; tags tell the direction and shape of the fitted curve.

Compound | Potency
C=CCn1c(SCC(=O)Nc2cccc(C)c2)nnc1-c1cnccn1 | inactive
CC(C)(C)OC(=O)CNC(=O)c1nc[nH]c1C(=O)N1CCNCC1 | inactive
O=[N+]([O-])c1nn(-c2ccc3c(c2)OCCO3)n(O)c1=Nc1ccc(Cl)cc1 | inactive
CCC(=O)c1cc2c(cc1NC(=O)c1ccc(C)cc1)OCCO2 | inconclusive: 29.1 µM [activator, partial curve, poor fit]
C=CCn1c(C)cc(C(=O)CN2C(=O)c3ccccc3C2=O)c1C | inconclusive: 2.31 µM [activator, full curve]
Cc1ccc(C(=O)O)cc1NC(=S)NC(=O)c1ccc(-c2ccccc2)cc1 | inconclusive: 11.6 µM [activator, partial curve, poor fit]
CC(C)Oc1cccc(C(=O)NC(=S)Nc2ccccc2)c1 | inconclusive: 3.66 µM [activator, partial curve]
CCc1cc(C(=O)NC(C)C2CCCO2)cs1 (centres undefined) | inconclusive: 18.3 µM [activator, partial curve, poor fit]
COc1cc(C(c2c(NC(=O)c3ccco3)sc(C)c2C)N2CCOCC2)cc(OC)c1OC (centres undefined) | inconclusive: 25.9 µM [activator, single point]
O=C(O)c1ccc2nc(CO)[nH]c2c1 | inconclusive: 35.5 µM [activator, single point]
Cc1cc(C)cc(C(=O)NC(=S)Nc2ccc3c(c2)OCCO3)c1 | inconclusive: 9.2 µM [activator, partial curve]
O=C(c1cnn(-c2ccccc2)c1)c1ccc2ccccc2c1O | inconclusive: 9.2 µM [activator, partial curve]
CC(=O)N1CCN(S(=O)(=O)c2cccc(C(=O)NNC(=O)Cn3nc(C)cc3C)c2)CC1 | inactive
O=C(NN=C1CCCCCC1)c1c[nH]c2ccccc12 | inactive
C/C(=N/NS(=O)(=O)c1ccc(C)cc1)c1cccc(NC(=O)c2cccc(Cl)c2)c1 | inactive
COc1ccccc1CNC(=O)C(=O)NCC1OCCN1C(=O)c1cccs1 (centres undefined) | inactive
C/C(=N\NC(=O)c1ccccc1)c1nc2ccccc2n1C | inconclusive: 32.6 µM [activator, partial curve, poor fit]
CC(=O)c1sc(N/N=C/c2cccc(O)c2)nc1C | inconclusive: 13 µM [activator, partial curve]
CN(C)c1ccc(NC(=O)/C=C/c2ccccc2Cl)cc1 | inconclusive: 2.06 µM [activator, full curve, poor fit]
O=C1/C(=C/c2ccc([N+](=O)[O-])cc2)CCc2ccccc21 | active: 7.3 µM
O=C(NCc1ccccc1)c1cccc(COc2ccc(Cl)cc2)c1 | inconclusive: 3.66 µM [activator, single point]
C=CCNC(=S)N/N=C/c1ccc(-c2cccc([N+](=O)[O-])c2)o1 | inconclusive: 29.1 µM [activator, single point]
O=C(COC(=O)CC1CCCC1)Nc1cc2c(cc1Cl)C(=O)c1ccccc1C2=O | active: 14.6 µM
COc1ccc(-c2[nH]ncc2CN2CCCO2)c(F)c1 | inactive
O=C(CSc1cccs1)Nc1ccc2ccccc2c1 | inconclusive: 18.4 µM [activator, partial curve, poor fit]

Compound | Potency
CC(=O)c1ccc(NC(=O)CSc2nc(N3CCOCC3)nc(N3CCOCC3)n2)cc1 | active: 18.3 µM
O=C(CC(Nc1cccc(Cl)c1Cl)C(=O)O)c1ccccc1 (centres undefined) | inconclusive: 20.6 µM [activator, partial curve, poor fit]
COc1ccccc1-c1cc(C(F)(F)F)n2ncc(C(=O)N3CCc4ccccc4C3)c2n1 | inactive
Cc1ccc2nc(SCC(=O)Nc3cccc(Cl)c3)nc(=O)n2c1 | inconclusive: 11.6 µM [activator, partial curve]
COCCn1c(C)cc(C(=O)CN2c3cccc4cccc(c34)S2(=O)=O)c1C | inactive
Cc1nc2sc(C(=O)Nc3ccccc3Cc3ccccc3)c(C)c2c(=O)[nH]1 | inactive
O=C(c1ccco1)N1CCN(c2ncnc3c2cnn3-c2ccccc2)CC1 | inconclusive: 10.3 µM [activator, partial curve]
CC(=O)N/C(N)=N/c1nc2cc(C)ccc2o1 | active: 9.2 µM
Cc1ccc(C)c(OCC(O)CN2CCN(CCN3C(=O)c4cccc5cccc(c45)C3=O)CC2)c1 (centres undefined) | inactive
CCn1cc(C(C)NC(=O)COc2ccc(Cl)cc2C)c(C)n1 (centres undefined) | inconclusive: 18.4 µM [activator, partial curve, poor fit]
O=C(Nc1ccc2c(c1)OCCO2)NC1(C(F)(F)F)Oc2ccccc2O1 | inconclusive: 18.4 µM [activator, single point]
Clc1ccccc1Nc1nc(-c2cccnc2)cs1 | inconclusive: 1.64 µM [activator, partial curve]
CC(=O)OCC(=O)[C@@]12OC(C)(C)O[C@@H]1CC1C3C[C@H](F)C4=CC(=O)C=CC4(C)[C@@]3(F)C(O)CC12C (some centres undefined) | inconclusive: 0.0009 µM [activator, full curve, poor fit]
CC(C)N1CCc2c(sc(NC(=S)NC(=O)c3ccccc3)c2C#N)C1 | inconclusive: 18.4 µM [activator, partial curve, poor fit]
CC1=NN(C(N)=S)C(=O)C1N=Nc1ccc(C)c(Br)c1 (centres undefined) | active: 5.17 µM
O=c1cc(CSc2ccc(Cl)cc2)nc(-c2ccccn2)[nH]1 | inconclusive: 29.1 µM [activator, single point]
COc1ccccc1NC(=O)C(=O)N/N=C/c1cccs1 | inconclusive: 13 µM [activator, partial curve, poor fit]
Cc1cc(OCc2cn3cccnc3n2)ccc1Cl | active: 8.2 µM
O=C(NN=C1C2CC3CC(C2)CC1C3)c1cccs1 | inconclusive: 32.6 µM [activator, partial curve, poor fit]
CCCOC(=O)c1ccc(NC(=O)Cc2cccs2)cc1 | inconclusive: 23.1 µM [activator, partial curve, poor fit]
COc1ccc(NC(=O)C(=O)c2cn(CC(=O)N3CCCC3)c3ccccc23)c(OC)c1 | inconclusive: 6.51 µM [activator, partial curve, poor fit]
O=C(Nc1ccc(F)cc1)c1ccc2snnc2c1 | inconclusive: 20.6 µM [activator, partial curve, poor fit]
Cc1ccc2c(c1)C(c1ccccc1)N(C(=O)c1cccc([N+](=O)[O-])c1)CC(=O)N2 (centres undefined) | inactive
CC1CCC(NC(=O)c2ccc(NS(=O)(=O)c3ccc4[nH]c(=O)[nH]c4c3)cc2)CC1 (centres undefined) | active: 18.3 µM
CCC(=O)Nc1ccc(OCc2nc3ccccc3s2)cc1 | active: 2.91 µM

Compound | Potency
O=C(Nc1ccc2nsnc2c1)NC1CCCCC1 | inconclusive: 25.9 µM [activator, partial curve, poor fit]
COc1ccccc1N(/N=C1\Sc2ccccc2C1=O)C(C)=O | active: 0.92 µM
CSc1ccccc1-c1nnc(-c2ccccc2)o1 | inconclusive: 4.61 µM [activator, full curve]
Clc1ccc2[nH]c(-c3ccccc3)cc2c1 | inconclusive: 3.66 µM [activator, partial curve, poor fit]
COC(=O)c1ccc(NC(=O)c2ccco2)cc1 | active: 20.6 µM
COc1ccc2c(c1)-c1nc(NC(=O)c3cccs3)sc1CC2 | inactive
CC1CCCCN1C(=O)c1ccc(CS(=O)(=O)Cc2ccccc2)cc1 (centres undefined) | inactive
COCC(=O)Nc1c(C(=O)Nc2cccc(OC)c2)oc2ccccc12 | inconclusive: 2.59 µM [activator, partial curve]
CCCn1c(N)c(N(CCOC)C(=O)c2ccccc2)c(=O)[nH]c1=O | inactive
O=C(COc1ccccc1)NCC(=O)NC1=NCCS1 | inactive
O=C(N/N=C/C=C\c1ccco1)c1ccccn1 | inconclusive: 14.6 µM [activator, single point]
N#Cc1ccc(C(=O)Nc2ccc3ccccc3c2)cc1 | inconclusive: 0.517 µM [activator, full curve, poor fit]
O=C(c1cc(-c2ccccc2O)on1)N1CCOCC1 | active: 13 µM
C=CCNc1nc(Cl)nc(Nc2cc(Cl)ccc2OC)n1 | inactive
Fc1ccccc1SCc1nnc(-c2ccccc2Br)o1 | active: 2.91 µM
CCCc1ccc2oc(C(=O)NCc3nnc(C)o3)c(C)c2c1 | active: 9.2 µM
O=C1CCC(C(=O)N2CCCCO2)CN1CCc1ccc(Cl)cc1 (centres undefined) | inconclusive: 20.6 µM [activator, partial curve, poor fit]
O=C(Nc1nnc(CCc2ccccc2)s1)c1ccccc1 | inconclusive: 29.1 µM [activator, single point]
CCOc1cccc(C(=O)NNC(=O)C2C3C=CC(C3)C2C(=O)O)c1 (centres undefined) | inconclusive: 20.6 µM [activator, partial curve, poor fit]
CN(C)CCCN(C(=O)c1sc2ccccc2c1Cl)c1nc2ccc(F)cc2s1 | inconclusive: 18.4 µM [activator, partial curve]
O=C(Nc1cccc(Cl)c1)Nc1nnc(CSCCOc2ccc(Cl)cc2)s1 | inactive
COc1ccc(Cn2nnc3c(=O)[nH]c(C(=O)NCCc4ccc(F)cc4)nc32)cc1OC | inconclusive: 13 µM [activator, partial curve, poor fit]
CCOC(=O)c1nc(N/N=C/c2ccccc2)sc1Br | inactive
COc1ccc(N/N=C(C)/C(=N/O)C(=O)Nc2ccccc2)cc1 | inconclusive: 8.2 µM [activator, partial curve, poor fit]

Source: PubChem BioAssay AID504466 (National Center for Advancing Translational Sciences (NCATS), 2011)
